{
  "source": "PubChem BioAssay AID2676",
  "about": "(National Center for Advancing Translational Sciences (NCATS), 2010)",
  "note": "Hit rate of the full screen: of about 370,000 compounds, about 1,100 (0.3%) were called active. This list was built around the results that the source calls inconclusive (neither active nor inactive); the mix of calls is not that of the screen. The call rests on the fitted dose curve; in most records, active means well fitted activation curve with a large enough effect; inconclusive means small, poorly fitted or top-dose-only effect; inactive means flat fitted curve, though single readings scatter. Potencies beside an inconclusive call are fits to weak or partial responses and may not hold up. Potency means the concentration at half of the fitted maximal effect; tags describe the fitted curve by direction and shape.",
  "data": [
    {"target": "Relaxin receptor 1 (Homo sapiens) (UniProt Q9HBX9)", "sequence (Q9HBX9 whole entry, looked up)": "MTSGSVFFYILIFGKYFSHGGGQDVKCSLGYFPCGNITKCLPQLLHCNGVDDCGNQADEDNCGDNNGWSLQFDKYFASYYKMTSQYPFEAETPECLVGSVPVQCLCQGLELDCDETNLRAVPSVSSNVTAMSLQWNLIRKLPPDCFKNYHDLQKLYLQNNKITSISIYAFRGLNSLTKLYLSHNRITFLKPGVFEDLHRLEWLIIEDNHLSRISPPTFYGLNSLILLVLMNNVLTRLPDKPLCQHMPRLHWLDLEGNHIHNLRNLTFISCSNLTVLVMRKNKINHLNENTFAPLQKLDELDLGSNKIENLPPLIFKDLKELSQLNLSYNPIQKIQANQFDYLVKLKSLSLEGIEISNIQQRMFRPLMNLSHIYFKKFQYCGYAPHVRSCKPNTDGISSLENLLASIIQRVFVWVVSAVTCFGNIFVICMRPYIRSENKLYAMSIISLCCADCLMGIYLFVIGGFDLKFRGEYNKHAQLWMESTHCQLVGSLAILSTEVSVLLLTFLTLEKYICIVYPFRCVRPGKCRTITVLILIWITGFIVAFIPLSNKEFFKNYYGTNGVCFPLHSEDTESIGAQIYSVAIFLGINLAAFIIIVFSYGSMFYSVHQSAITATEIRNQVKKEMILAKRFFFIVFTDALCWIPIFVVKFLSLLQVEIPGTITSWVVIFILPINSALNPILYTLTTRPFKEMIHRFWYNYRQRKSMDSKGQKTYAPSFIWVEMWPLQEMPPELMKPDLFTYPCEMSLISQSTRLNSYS", "assay": "qHTS Assay for Agonists of the Relaxin Receptor RXFP1; further: nearly all actives have a fitted effect of over 60% in size", "details": "HEK293T-RXFP1 cAMP TR-FRET, 30 min; series mostly up to 57.5 µM", "method_in_brief": "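cAMP rise read by TR-FRET after 30 min, 37C compound exposure (up to 58 uM) in RXFP1-transfected HEK293 cells with Ro 20174 present. EC50 from Hill-equation fits, with 29 nM porcine relaxin as 100% and buffer as basal.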", "values": [
      {"compound": "C=CCn1c2ccccc2c2nn(C)c(=S)nc21", "Potency": "inconclusive: 22.4 µM [activator, partial curve]"},
      {"compound": "Cc1ccc(S(=O)(=O)N2CCN(C(=O)CNC(=O)c3sc4ccccc4c3Cl)CC2)cc1", "Potency": "inactive"},
      {"compound": "CC(CNC(=O)Cn1c(-c2cccs2)cc2cc(Cl)ccc21)c1ccccc1", "note": "(configuration not stated)", "Potency": "inconclusive: 35.5 µM [activator, single point]"},
      {"compound": "O=C(O)c1cc(-c2ccc(Br)s2)nc2ccccc12", "Potency": "active: 2.82 µM"},
      {"compound": "CC(C(=O)NC1CC1)c1ncc(C(F)(F)F)cc1Cl", "note": "(configuration not stated)", "Potency": "inactive"},
      {"compound": "Cc1ccc(C[C@H](C(=O)O)N2C(=O)c3ccc(C(=O)O)cc3C2=O)c(C)c1", "Potency": "inactive"},
      {"compound": "CCCCn1c2nc3ccccc3nc2c2c(=N)oc(C)nc21", "Potency": "inconclusive: 35.5 µM [activator, single point]"},
      {"compound": "CCOc1ccc(CNC(=O)C(C)n2ncn3cccc3c2=O)cc1", "note": "(configuration not stated)", "Potency": "inconclusive: 35.5 µM [activator, single point]"},
      {"compound": "COc1ccccc1C(=O)Nc1ccccc1C(=O)OCc1cc(=O)n2c(C)csc2n1", "Potency": "inconclusive: 39.8 µM [activator, single point]"},
      {"compound": "COc1cccc(CNC(=O)C2CCCN(S(=O)(=O)c3ccc4c(ccn4C)c3)C2)c1OC", "note": "(configuration not stated)", "Potency": "inactive"},
      {"compound": "CC1=C(C(=O)OCC2CCCO2)C(c2coc3ccccc3c2=O)C2=C(CCCC2=O)N1", "note": "(configuration not stated)", "Potency": "inconclusive: 28.2 µM [activator, partial curve]"},
      {"compound": "Cc1cccc(-c2nnc(SCC(=O)Nc3ccc(C)c(C)c3)o2)c1", "Potency": "inconclusive: 39.8 µM [activator, single point]"},
      {"compound": "CCC(C)NC(=O)c1ccc(Cn2c(=O)c3cccn3c3cccnc32)cc1", "note": "(configuration not stated)", "Potency": "inconclusive: 20 µM [activator, partial curve]"},
      {"compound": "Cc1ccc(CNC(=O)CN2C(=O)C3CCCCN3c3ccc(C(=O)N(C)C)cc32)cc1", "note": "(configuration not stated)", "Potency": "inactive"},
      {"compound": "COc1ccc(-c2nc(CCNC(=O)c3c(F)cccc3Cl)cs2)cc1", "Potency": "inconclusive: 5.01 µM [activator, single point]"},
      {"compound": "CCc1ccccc1NC(=O)CSc1nc2n[nH]c(C)c2c(=N)n1-c1cccc(C)c1", "Potency": "inconclusive: 39.8 µM [activator, single point]"},
      {"compound": "CCOc1ccc(-c2nnc(SCC(=O)Nc3cc(C)on3)o2)cc1", "Potency": "inconclusive: 39.8 µM [activator, single point]"},
      {"compound": "Cc1ccc(C)c(NC(=O)CSc2ncc3c(n2)-c2ccccc2N(Cc2ccccc2C)S3(=O)=O)c1", "Potency": "inconclusive: 35.5 µM [activator, single point]"},
      {"compound": "O=C(Cn1cc(S(=O)(=O)c2ccc(Cl)cc2)c(=O)c2ccccc21)Nc1ccc2c(c1)OCO2", "Potency": "inconclusive: 31.6 µM [activator, single point]"},
      {"compound": "COc1cc(NC(=O)Cn2c(=O)n(Cc3ccccc3Cl)c(=O)c3cc(OC)c(OC)cc32)cc(OC)c1", "Potency": "active: 25.1 µM"},
      {"compound": "O=c1cc(C(F)(F)F)[nH]c2ccc(OC(F)(F)F)cc12", "Potency": "inactive"},
      {"compound": "COc1ccccc1C(=O)Nc1ccc(OCc2cc(=O)n3cccc(C)c3n2)cc1", "Potency": "inconclusive: 39.8 µM [activator, single point]"},
      {"compound": "CC1CCN(C(=O)CSc2nc3c(c(=O)n(C)c(=O)n3C)n2C)CC1", "Potency": "inconclusive: 28.2 µM [activator, partial curve]"},
      {"compound": "CC(=O)c1sc(NC(=O)C2COc3ccccc3O2)nc1C", "note": "(configuration not stated)", "Potency": "inconclusive: 25.1 µM [activator, partial curve]"},
      {"compound": "CN(C)c1ccc(CNC(=O)CCn2c(=O)c3cccn3c3ccc(F)cc32)cc1", "Potency": "inconclusive: 28.2 µM [activator, single point]"},
      {"compound": "COc1ccc(-c2csc(NC(=O)c3ccc(N4C(=O)CCC4=O)cc3)n2)cc1", "Potency": "inconclusive: 35.5 µM [activator, single point]"},
      {"compound": "COc1ccc(S(=O)(=O)c2cc3cc(OC)ccc3oc2=O)cc1", "Potency": "inconclusive: 39.8 µM [activator, single point]"},
      {"compound": "NC(=O)COC(=O)CSc1cccc2cccc(Cl)c12", "Potency": "inconclusive: 25.1 µM [activator, partial curve]"},
      {"compound": "OCC1(CCc2ccccc2)CCN(C/C=C/c2ccccc2)CC1", "Potency": "inactive"},
      {"compound": "COc1ccccc1Cc1nc2ccccc2nc1SCC(=O)Nc1ccccc1C(F)(F)F", "Potency": "inconclusive: 39.8 µM [activator, single point]"},
      {"compound": "Cc1nn(CCc2nn[nH]n2)c2nc(C(F)(F)F)cc(C(F)(F)F)c12", "Potency": "inactive"},
      {"compound": "O=S(=O)(c1ccc(Cl)cc1)c1nnn2c1nc(NCc1cccs1)c1sccc12", "Potency": "inconclusive: 35.5 µM [activator, single point]"},
      {"compound": "CCOc1ccccc1NC(=O)C(=O)c1cc(C)n(-c2ccc(F)cc2)c1C", "Potency": "inconclusive: 39.8 µM [activator, single point]"},
      {"compound": "Cc1ccc2cc(CN(C(=O)c3cccs3)c3ccccc3)c(=O)[nH]c2c1", "Potency": "inconclusive: 39.8 µM [activator, single point]"},
      {"compound": "N#CC(C#N)=C1NC(N)=C(C#N)C(c2ccccc2)=C1C#N", "Potency": "active: 28.2 µM"},
      {"compound": "COCCCn1c(=N)c(C(=O)NCc2cccnc2)cc2c(=O)n3cccc(C)c3nc21", "Potency": "inconclusive: 14.1 µM [activator, partial curve]"},
      {"compound": "O=C(NC1CCCCCC1)c1cccs1", "Potency": "inactive"},
      {"compound": "CCOC(=O)c1ccc(NC(=O)CSc2nc(-c3ccc(OC)cc3)cc(C(F)(F)F)c2C#N)cc1", "Potency": "inconclusive: 3.16 µM [activator, full curve]"},
      {"compound": "Cc1ccc(F)cc1NC(=O)c1sc2ncn(CC(=O)N3CCN(c4ccccn4)CC3)c(=O)c2c1C", "Potency": "active: 15.8 µM"},
      {"compound": "CC(C)(C)C(=O)NNC(=O)COc1ccc2ccccc2c1Br", "Potency": "inconclusive: 25.1 µM [activator, partial curve]"},
      {"compound": "CCOC(=O)/C(C#N)=C/c1c(N2CCN(CC)CC2)nc2c(C)cccn2c1=O", "Potency": "inconclusive: 28.2 µM [activator, partial curve]"},
      {"compound": "COc1cccc(-n2ccn(CC(=O)NCc3ccc(C)cc3)c(=O)c2=O)c1", "Potency": "inconclusive: 35.5 µM [activator, single point]"}
    ]}
  ]
}
